Results: the supplement of paper PMC4604168 (melanoma cell lines)
Some of the results follow. Most values come without repeats; read them as rough.

Legend:
Assay in all cases: cell count relative to DMSO control; melanoma cells; higher = more viable cells
Settings in all cases: library dose: standard library concentration; 72 h
[1] = system: G361
[2] = system: IPC-298
[3] = system: IST-MEL1
[4] = system: LB2518-MEL
[5] = system: LOXIMVI
[6] = system: MEL-HO
[7] = system: MZ2-MEL
[8] = system: MeWo
[9] = system: RPMI7951
[10] = system: RVH-421
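Further: cells treated in 1,536-well plates, then fixed and DAPI-stained, with nuclei counted from automated high-throughput microscope images.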

Work on `COc1cc([C@@H]2c3cc4c(cc3[C@@H](O[C@@H]3O[C@@H]5CO[C@@H](C)O[C@H]5[C@H](O)[C@H]3O)[C@H]3COC(=O)[C@H]23)OCO4)cc(OC)c1O` [etoposide] + COc1cc(N2CCC(N3CCN(C)CC3)CC2)ccc1Nc1ncc(Cl)c(Nc2ccccc2S(=O)(=O)C(C)C)n1 [NVP-TAE684] (first compound 0.1 µM, partner dose 0.4 µM) yielded a cell count [1] of 98.8%, a cell count [2] of 85.1% and a cell count [3] of 93.6%. For the same compound, the cell count [4] was 123%, the cell count [5] was 104% and the cell count [6] was 82.3%. For the same compound, the cell count [7] was 95.7%, the cell count [8] was 71% and the cell count [9] was 71.9%. For the same compound, the cell count [10] was 126%.
Compound `CCN(CC)CCNC(=O)c1c(C)[nH]c(/C=C2\C(=O)Nc3ccc(F)cc32)c1C` [sunitinib] + Cc1nc(Nc2ncc(C(=O)Nc3c(C)cccc3Cl)s2)cc(N2CCN(CCO)CC2)n1 [dasatanib] (first compound 2 µM, partner dose 0.02 µM) has a cell count [1] of 58.7%, a cell count [2] of 84.6% and a cell count [3] of 66.2%. The cell count [4] was 58.5%, the cell count [5] was 46.1% and the cell count [6] was 72.9%. It also gave a cell count [7] of 63%, a cell count [8] of 58.8% and a cell count [9] of 40.6%. It also gave a cell count [10] of 42.2%.
Work on `COc1cc([C@@H]2c3cc4c(cc3[C@@H](O[C@@H]3O[C@@H]5CO[C@@H](C)O[C@H]5[C@H](O)[C@H]3O)[C@H]3COC(=O)[C@H]23)OCO4)cc(OC)c1O` [etoposide] + Cc1ccc(Nc2nccc(N(C)c3ccc4c(C)n(C)nc4c3)n2)cc1S(N)(=O)=O [Pazopanib] (first compound 0.1 µM, partner dose 2 µM) yielded a cell count [1] of 81.9%, a cell count [2] of 45.3% and a cell count [3] of 90.1%. The cell count [4] was 83.9%, the cell count [5] was 65.3% and the cell count [6] was 87.2%. The cell count [7] was 48.6%, the cell count [8] was 79.4% and the cell count [9] was 76.7%. It also gave a cell count [10] of 206%.
With `COc1cc([C@@H]2c3cc4c(cc3[C@@H](O[C@@H]3O[C@@H]5CO[C@@H](C)O[C@H]5[C@H](O)[C@H]3O)[C@H]3COC(=O)[C@H]23)OCO4)cc(OC)c1O` [etoposide] + NC(=O)c1ccc(N(C(N)=O)c2c(F)cccc2F)nc1-c1ccc(F)cc1F [VX702] (first compound 0.1 µM, partner dose 2 µM) the cell count [1] was 87.9%, the cell count [2] was 72.5% and the cell count [3] was 99.5%. For the same compound, the cell count [4] was 108%, the cell count [5] was 118% and the cell count [6] was 83.1%. It also gave a cell count [7] of 88.8%, a cell count [8] of 96.8% and a cell count [9] of 101%. The cell count [10] was 131%.
`Cn1cnc2c(F)c(Nc3ccc(Br)cc3Cl)c(C(=O)NOCCO)cc21` [selumetinib] + CS(=O)(=O)c1ccc(C(=O)Nc2ccc(Cl)c(-c3ccccn3)c2)c(Cl)c1 [vismodegib] (first compound 0.075 µM, partner dose 5 µM) was tested, and the cell count [1] was 62.1%, the cell count [2] was 47.9% and the cell count [3] was 75.4%. It also gave a cell count [4] of 48.1%, a cell count [5] of 121% and a cell count [6] of 80.9%. It also gave a cell count [7] of 66.1%, a cell count [8] of 56.3% and a cell count [9] of 113%. It also gave a cell count [10] of 94.7%.
`COc1cc([C@@H]2c3cc4c(cc3[C@@H](O[C@@H]3O[C@@H]5CO[C@@H](C)O[C@H]5[C@H](O)[C@H]3O)[C@H]3COC(=O)[C@H]23)OCO4)cc(OC)c1O` [etoposide] + CCCCCCCCCCCCCCCCCCOP(=O)([O-])OC1CC[N+](C)(C)CC1 [Perifosine] (first compound 0.1 µM, partner dose 2 µM) showed a cell count [1] of 87.7%, a cell count [2] of 90% and a cell count [3] of 89.3%. The cell count [4] was 83.7%, the cell count [5] was 73.8% and the cell count [6] was 103%. The cell count [7] was 79.5%, the cell count [8] was 85.4% and the cell count [9] was 31.8%. The cell count [10] was 72.8%.
With `C[C@]1(O)C[C@@H](c2nc(-c3ccc4ccc(-c5ccccc5)nc4c3)c3c(N)nccn32)C1` + Cc1cc(N2CCOCC2)cc2[nH]c(-c3c(NC[C@@H](O)c4cccc(Cl)c4)cc[nH]c3=O)nc12 [BMS536924] (first compound 2 µM, partner dose 1 µM) the cell count [1] was 96.4%, the cell count [2] was 104% and the cell count [3] was 84.8%. It also gave a cell count [4] of 77.9%, a cell count [5] of 77.3% and a cell count [6] of 96.3%. The cell count [7] was 116%, the cell count [8] was 66.2% and the cell count [9] was 98.8%. The cell count [10] was 118%.
`Cn1cnc2c(F)c(Nc3ccc(Br)cc3Cl)c(C(=O)NOCCO)cc21` [selumetinib] + Clc1ccc(Nc2nnc(Cc3ccncc3)c3ccccc23)cc1 [vatalanib] (first compound 0.075 µM, partner dose 10 µM) showed a cell count [1] of 58.2%, a cell count [2] of 43.2% and a cell count [3] of 66.7%. For the same compound, the cell count [4] was 56.3%, the cell count [5] was 89.4% and the cell count [6] was 57.7%. The cell count [7] was 66.1%, the cell count [8] was 78.7% and the cell count [9] was 98.8%. For the same compound, the cell count [10] was 80.1%.
For `CCN(CC)CCNC(=O)c1c(C)[nH]c(/C=C2\C(=O)Nc3ccc(F)cc32)c1C` [sunitinib] + COc1ccc(-c2ccc3c(N4CCOCC4)nc(N4C[C@@H](C)O[C@@H](C)C4)nc3n2)cc1CO [KU0063794] (first compound 2 µM, partner dose 0.1 µM), the cell count [1] was 63%, the cell count [2] was 65% and the cell count [3] was 77.9%. The cell count [4] was 54.9%, the cell count [5] was 106% and the cell count [6] was 73.5%. For the same compound, the cell count [7] was 80.5%, the cell count [8] was 50.6% and the cell count [9] was 66.6%. For the same compound, the cell count [10] was 81.6%.
Compound `COc1cc([C@@H]2c3cc4c(cc3[C@@H](O[C@@H]3O[C@@H]5CO[C@@H](C)O[C@H]5[C@H](O)[C@H]3O)[C@H]3COC(=O)[C@H]23)OCO4)cc(OC)c1O` [etoposide] + Nc1cccc2c1CN(C1CCC(=O)NC1=O)C2=O [lenalidomide] (first compound 0.1 µM, partner dose 5 µM) has a cell count [1] of 90.9%, a cell count [2] of 70.5% and a cell count [3] of 86.2%. It also gave a cell count [4] of 76.9%, a cell count [5] of 59.6% and a cell count [6] of 101%. It also gave a cell count [7] of 71.8%, a cell count [8] of 82.7% and a cell count [9] of 93.5%. The cell count [10] was 85.2%.
With `CCN(CC)CCNC(=O)c1c(C)[nH]c(/C=C2\C(=O)Nc3ccc(F)cc32)c1C` [sunitinib] + C#Cc1cccc(Nc2ncnc3cc(OCCOC)c(OCCOC)cc23)c1 [erlotinib] (first compound 2 µM, partner dose 4 µM) the cell count [1] was 60.8%, the cell count [2] was 41.3% and the cell count [3] was 79.9%. The cell count [4] was 50.9%, the cell count [5] was 110% and the cell count [6] was 63.8%. The cell count [7] was 58.5%, the cell count [8] was 50% and the cell count [9] was 36.4%. It also gave a cell count [10] of 103%.
`CCN(CC)CCNC(=O)c1c(C)[nH]c(/C=C2\C(=O)Nc3ccc(F)cc32)c1C` [sunitinib] + CC(C)CCN1c2nc(Nc3cc(F)c(O)c(F)c3)ncc2N(C)C(=O)C1C [BID1870] (first compound 2 µM, partner dose 1 µM) was tested, and the cell count [1] was 51.8%, the cell count [2] was 64.7% and the cell count [3] was 88.3%. It also gave a cell count [4] of 53.4%, a cell count [5] of 102% and a cell count [6] of 61.3%. It also gave a cell count [7] of 89.8%, a cell count [8] of 47.4% and a cell count [9] of 47.2%. The cell count [10] was 90.1%.
Work on `Cn1cnc2c(F)c(Nc3ccc(Br)cc3Cl)c(C(=O)NOCCO)cc21` [selumetinib] + Cc1cc(Nc2cc(N3CCN(C)CC3)nc(/C=C/c3ccccc3)n2)n[nH]1 [ENMD2076] (first compound 0.075 µM, partner dose 0.2 µM) yielded a cell count [1] of 66.7%, a cell count [2] of 38.1% and a cell count [3] of 96.4%. It also gave a cell count [4] of 44.8%, a cell count [5] of 85.4% and a cell count [6] of 73.9%. The cell count [7] was 44.5%, the cell count [8] was 58.5% and the cell count [9] was 102%. The cell count [10] was 72.6%.
In the case of `COc1cc([C@@H]2c3cc4c(cc3[C@@H](O[C@@H]3O[C@@H]5CO[C@@H](C)O[C@H]5[C@H](O)[C@H]3O)[C@H]3COC(=O)[C@H]23)OCO4)cc(OC)c1O` [etoposide] + Cn1sc(=O)n(Cc2ccccc2)c1=O [TDZD-8] (first compound 0.1 µM, partner dose 2 µM), the cell count [1] is reported as 72.3%, the cell count [2] is reported as 57.2% and the cell count [3] is reported as 104%. The cell count [4] was 71.5%, the cell count [5] was 64% and the cell count [6] was 93.5%. The cell count [7] was 72.1%, the cell count [8] was 81% and the cell count [9] was 60.5%. It also gave a cell count [10] of 75.7%.
For `Cn1cnc2c(F)c(Nc3ccc(Br)cc3Cl)c(C(=O)NOCCO)cc21` [selumetinib] + Cn1c(Nc2ccc(C(F)(F)F)cc2)nc2cc(Oc3ccnc(-c4ncc(C(F)(F)F)[nH]4)c3)ccc21 [CHIR265] (first compound 0.075 µM, partner dose 0.4 µM), the cell count [1] was 15.2%, the cell count [2] was 28.8% and the cell count [3] was 73%. It also gave a cell count [4] of 12.4%, a cell count [5] of 95% and a cell count [6] of 43.5%. For the same compound, the cell count [7] was 35.5%, the cell count [8] was 47.1% and the cell count [9] was 53.7%. It also gave a cell count [10] of 48.7%.
Work on `CCN(CC)CCNC(=O)c1c(C)[nH]c(/C=C2\C(=O)Nc3ccc(F)cc32)c1C` [sunitinib] + C[C@@H]1CCN(C(=O)CC#N)C[C@@H]1N(C)c1ncnc2[nH]ccc12 [CP690550] (first compound 2 µM, partner dose 5 µM) yielded a cell count [1] of 85.4%, a cell count [2] of 93.9% and a cell count [3] of 83.3%. For the same compound, the cell count [4] was 57.3%, the cell count [5] was 75.7% and the cell count [6] was 95.8%. It also gave a cell count [7] of 104%, a cell count [8] of 46.4% and a cell count [9] of 85%. It also gave a cell count [10] of 92.1%.
`C[C@]1(O)C[C@@H](c2nc(-c3ccc4ccc(-c5ccccc5)nc4c3)c3c(N)nccn32)C1` + CS(=O)(=O)c1ccc(C(=O)Nc2ccc(Cl)c(-c3ccccn3)c2)c(Cl)c1 [vismodegib] (first compound 2 µM, partner dose 5 µM) gave a cell count [1] of 80.8%, a cell count [2] of 90.3% and a cell count [3] of 115%. It also gave a cell count [4] of 93.9%, a cell count [5] of 120% and a cell count [6] of 101%. It also gave a cell count [7] of 105%, a cell count [8] of 79.4% and a cell count [9] of 56.7%. The cell count [10] was 148%.
Compound `C[C@]1(O)C[C@@H](c2nc(-c3ccc4ccc(-c5ccccc5)nc4c3)c3c(N)nccn32)C1` + Nc1ccn([C@@H]2O[C@H](CO)[C@@H](O)C2(F)F)c(=O)n1 [gemcitabine] (first compound 2 µM, partner dose 0.002 µM) has a cell count [1] of 74.8%, a cell count [2] of 32.9% and a cell count [3] of 46.2%. It also gave a cell count [4] of 59.1%, a cell count [5] of 69.3% and a cell count [6] of 65.9%. The cell count [7] was 57%, the cell count [8] was 38.7% and the cell count [9] was 61.4%. For the same compound, the cell count [10] was 228%.
Compound `CCN(CC)CCNC(=O)c1c(C)[nH]c(/C=C2\C(=O)Nc3ccc(F)cc32)c1C` [sunitinib] + CC(C)(C)c1cnc(CSc2cnc(NC(=O)C3CCNCC3)s2)o1 [SNS-032] (first compound 2 µM, partner dose 0.05 µM) has a cell count [1] of 65.6%, a cell count [2] of 82.1% and a cell count [3] of 87.7%. The cell count [4] was 38.8%, the cell count [5] was 69.3% and the cell count [6] was 83.4%. For the same compound, the cell count [7] was 74.5%, the cell count [8] was 46.3% and the cell count [9] was 10.3%. The cell count [10] was 91.4%.
Compound `COc1cc([C@@H]2c3cc4c(cc3[C@@H](O[C@@H]3O[C@@H]5CO[C@@H](C)O[C@H]5[C@H](O)[C@H]3O)[C@H]3COC(=O)[C@H]23)OCO4)cc(OC)c1O` [etoposide] + Cc1ccc(NC(=O)c2cccc(N(C)C)c2)cc1NC(=O)c1ccc(O)cc1 [ZM336372] (first compound 0.1 µM, partner dose 10 µM) has a cell count [1] of 109%, a cell count [2] of 83.4% and a cell count [3] of 89.9%. The cell count [4] was 93.7%, the cell count [5] was 129% and the cell count [6] was 97.1%. The cell count [7] was 84.8%, the cell count [8] was 81.5% and the cell count [9] was 130%. It also gave a cell count [10] of 81.2%.
